# Some of the results follow. Many values rest on one well or one pass, so single values are uncertain.
# Assays:
# Test in all cases: cell count relative to DMSO control; melanoma cells; higher = more viable cells
# Conditions in all cases: library dose: low library concentration; 72 h
# [1] = system: MZ2-MEL
# [2] = system: MeWo
# [3] = system: RPMI7951
# [4] = system: RVH-421
# [5] = system: SkMel28
# [6] = system: SkMel2
# [7] = system: SkMel30
# [8] = system: UACC62
# 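Note: cell number obtained by counting DAPI-stained nuclei in high-throughput microscope images with image analysis software, screen run in 1,536-well plates.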
Compound,cell count [1] [%],cell count [2] [%],cell count [3] [%],cell count [4] [%],cell count [5] [%],cell count [6] [%],cell count [7] [%],cell count [8] [%]
"CC[C@]1(O)C[C@H]2CN(CCc3c([nH]c4ccccc34)[C@@](C(=O)OC)(c3cc4c(cc3OC)N(C=O)[C@H]3[C@@](O)(C(=O)OC)[C@H](OC(C)=O)[C@]5(CC)C=CCN6CC[C@]43[C@@H]65)C2)C1 [vincristine] + Cc1cc(Nc2cc(N3CCN(C)CC3)nc(/C=C/c3ccccc3)n2)n[nH]1 [ENMD2076] (first compound 0.0001 µM, partner dose 0.04 µM)",88.5,83.6,57.5,97.9,77.9,98.8,56.2,54.4
"N#CC[C@H](C1CCCC1)n1cc(-c2ncnc3[nH]ccc23)cn1 [ruxolitinib] + CC1(C)CCC(c2ccc(Cl)cc2)=C(CN2CCN(c3ccc(C(=O)NS(=O)(=O)c4ccc(N[C@H](CCN5CCOCC5)CSc5ccccc5)c(S(=O)(=O)C(F)(F)F)c4)cc3)CC2)C1 [ABT263] (first compound 1 µM, partner dose 0.4 µM)",93.3,74.6,49.8,78.6,119,91.4,89.2,121
"CC[C@]1(O)C[C@H]2CN(CCc3c([nH]c4ccccc34)[C@@](C(=O)OC)(c3cc4c(cc3OC)N(C=O)[C@H]3[C@@](O)(C(=O)OC)[C@H](OC(C)=O)[C@]5(CC)C=CCN6CC[C@]43[C@@H]65)C2)C1 [vincristine] + O=c1[nH]nc(Sc2ncc([N+](=O)[O-])s2)n1-c1ccc2c(c1)OCCO2 [BI78D3] (first compound 0.0001 µM, partner dose 0.2 µM)",89.2,82.9,74.7,102,103,102,62.2,71.9
"N#CC[C@H](C1CCCC1)n1cc(-c2ncnc3[nH]ccc23)cn1 [ruxolitinib] + CC(=O)c1c(C)c2cnc(Nc3ccc(N4CCNCC4)cn3)nc2n(C2CCCC2)c1=O [palbociclib] (first compound 1 µM, partner dose 0.04 µM)",91.5,80.8,77.2,99.4,107,105,71.1,79.1
"N#CC[C@H](C1CCCC1)n1cc(-c2ncnc3[nH]ccc23)cn1 [ruxolitinib] + CC(=O)O[C@@]12CO[C@@H]1C[C@H](O)[C@@]1(C)C(=O)[C@H](O)C3=C(C)[C@@H](OC(=O)[C@H](O)[C@@H](NC(=O)OC(C)(C)C)c4ccccc4)C[C@@](O)([C@@H](OC(=O)c4ccccc4)[C@H]21)C3(C)C [Docetaxel] (first compound 1 µM, partner dose 0.0001 µM)",70.9,59.5,45.4,71.6,72.4,57.3,49.4,40.6
"N#CC[C@H](C1CCCC1)n1cc(-c2ncnc3[nH]ccc23)cn1 [ruxolitinib] + Nc1ccn([C@@H]2O[C@H](CO)[C@@H](O)C2(F)F)c(=O)n1 [gemcitabine] (first compound 1 µM, partner dose 0.0004 µM)",97.6,82.3,80.4,63.4,106,106,96.8,87.4
"CC[C@]1(O)C[C@H]2CN(CCc3c([nH]c4ccccc34)[C@@](C(=O)OC)(c3cc4c(cc3OC)N(C=O)[C@H]3[C@@](O)(C(=O)OC)[C@H](OC(C)=O)[C@]5(CC)C=CCN6CC[C@]43[C@@H]65)C2)C1 [vincristine] + OCc1c[nH]c2ccccc12 [Indole-3-carbinol] (first compound 0.0001 µM, partner dose 0.8 µM)",84.5,69.3,45.7,77.4,59.8,86.3,57,44.8
"CC[C@]1(O)C[C@H]2CN(CCc3c([nH]c4ccccc34)[C@@](C(=O)OC)(c3cc4c(cc3OC)N(C=O)[C@H]3[C@@](O)(C(=O)OC)[C@H](OC(C)=O)[C@]5(CC)C=CCN6CC[C@]43[C@@H]65)C2)C1 [vincristine] + CC(C)C[C@H](NC(=O)[C@H](Cc1ccccc1)NC(=O)c1cnccn1)B(O)O [Bortezomib] (first compound 0.0001 µM, partner dose 0.001 µM)",88.6,69.8,31.8,58,80.1,91.2,70.4,47.4
"N#CC[C@H](C1CCCC1)n1cc(-c2ncnc3[nH]ccc23)cn1 [ruxolitinib] + C[C@@H](Oc1cc(-c2cnn(C3CCNCC3)c2)cnc1N)c1c(Cl)ccc(F)c1Cl [Crizotinib] (first compound 1 µM, partner dose 0.2 µM)",99.6,102,132,133,120,112,105,102
"CC[C@]1(O)C[C@H]2CN(CCc3c([nH]c4ccccc34)[C@@](C(=O)OC)(c3cc4c(cc3OC)N(C=O)[C@H]3[C@@](O)(C(=O)OC)[C@H](OC(C)=O)[C@]5(CC)C=CCN6CC[C@]43[C@@H]65)C2)C1 [vincristine] + COCC[n+]1c2c(n(Cc3cnccn3)c1C)C(=O)c1ccccc1C2=O [YM155] (first compound 0.0001 µM, partner dose 0.0004 µM)",57.2,86,47.8,91.6,82.4,89.7,47.8,51.3
"Cc1cc(Nc2cc(N3CCN(C)CC3)nc(Sc3ccc(NC(=O)C4CC4)cc3)n2)n[nH]1 [Tozasertib] + Nc1ccn([C@@H]2O[C@H](CO)[C@@H](O)C2(F)F)c(=O)n1 [gemcitabine] (first compound 0.006 µM, partner dose 0.0004 µM)",92.6,89.3,96.5,98.2,90.4,102,94.2,115
"Cc1cc(Nc2cc(N3CCN(C)CC3)nc(Sc3ccc(NC(=O)C4CC4)cc3)n2)n[nH]1 [Tozasertib] + CC(=O)O[C@@]12CO[C@@H]1C[C@H](O)[C@@]1(C)C(=O)[C@H](O)C3=C(C)[C@@H](OC(=O)[C@H](O)[C@@H](NC(=O)OC(C)(C)C)c4ccccc4)C[C@@](O)([C@@H](OC(=O)c4ccccc4)[C@H]21)C3(C)C [Docetaxel] (first compound 0.006 µM, partner dose 0.0001 µM)",66.6,65.6,33.8,74.3,60.9,66,50.7,55.8
"N#CC[C@H](C1CCCC1)n1cc(-c2ncnc3[nH]ccc23)cn1 [ruxolitinib] + COCC[n+]1c2c(n(Cc3cnccn3)c1C)C(=O)c1ccccc1C2=O [YM155] (first compound 1 µM, partner dose 0.0004 µM)",53.4,101,63.4,111,120,102,99.2,98.7
"CC[C@]1(O)C[C@H]2CN(CCc3c([nH]c4ccccc34)[C@@](C(=O)OC)(c3cc4c(cc3OC)N(C=O)[C@H]3[C@@](O)(C(=O)OC)[C@H](OC(C)=O)[C@]5(CC)C=CCN6CC[C@]43[C@@H]65)C2)C1 [vincristine] + O=C(O)c1ccc2c(c1)nc(Nc1cccc(Cl)c1)c1ccncc12 [CX4945] (first compound 0.0001 µM, partner dose 0.4 µM)",91,87.6,53,74.1,89.6,94,60.4,68
"Cc1cc(Nc2cc(N3CCN(C)CC3)nc(Sc3ccc(NC(=O)C4CC4)cc3)n2)n[nH]1 [Tozasertib] + COc1ccc(C2=N[C@@H](c3ccc(Cl)cc3)[C@@H](c3ccc(Cl)cc3)N2C(=O)N2CCNC(=O)C2)c(OC(C)C)c1 [Nutlin-3] (first compound 0.006 µM, partner dose 0.1 µM)",103,79.8,113,99.4,69.9,91.7,94,103
"N#CC[C@H](C1CCCC1)n1cc(-c2ncnc3[nH]ccc23)cn1 [ruxolitinib] + Nc1nc(F)nc2c1ncn2[C@@H]1O[C@H](CO)[C@@H](O)[C@@H]1O [fludarabine] (first compound 1 µM, partner dose 0.2 µM)",102,43,105,94.8,93.7,10.3,28.9,96.2
"N#CC[C@H](C1CCCC1)n1cc(-c2ncnc3[nH]ccc23)cn1 [ruxolitinib] + C=CCNC1=C2C[C@@H](C)C[C@H](OC)[C@H](O)[C@@H](C)/C=C(\C)[C@H](OC(N)=O)[C@@H](OC)/C=C\C=C(/C)C(=O)NC(=CC1=O)C2=O [Tanespimycin] (first compound 1 µM, partner dose 0.002 µM)",105,95.3,86.9,91.3,117,88.3,91,88.9
"N#CC[C@H](C1CCCC1)n1cc(-c2ncnc3[nH]ccc23)cn1 [ruxolitinib] + CCCCCCCCc1ccc(CCC(N)(CO)CO)cc1 [fingolimod] (first compound 1 µM, partner dose 2 µM)",94.2,88.9,91.4,106,129,91.1,107,106

# From the supplement of paper PMC4604168 (melanoma cell lines)
